First the molecules themselves.
B1: GPR68, Q15743 (parent)
chain: MGNITADNSSMSCTIDHTIHQTLAPVVYVTVLVVGFPANCLSLYFGYLQIKARNELGVYLCNLTVADLFYICSLPFWLQYVLQHDNWSHGDLSCQVCGILLYENIYISVGFLCCISVDRYLAVAHPFRFHQFRTLKAAVGVSVVIWAKELLTSIYFLMHEEVIEDENQHRVCFEHYPIQAWQRAINYYRFLVGFLFPICLLLASYQGILRAVRRSHGTQKSRKDQIQRLVLSTVVIFLACFLPYHVLLLVRSVWEASCDFAKGVFNAYHFSLLLTSFNCVADPVLYCFVSETTHRDLARLRGACLAFLTCSRTGRAREAYPLGAPEASGKSGAQGEEPELLTKLHPAFQTPNSPGSGGFPTGRLA

Scores whose standard error is large were omitted. Not listed are two conditions whose scores span a narrow range. In variant names, del marks residues removed and ins residues inserted between the two positions. For part of these data: The data file names ogerin without a concentration.

Data set [1] covers variants of B1. In words: cAMP reporter score (Enrich2 score, wild type = 0); higher = more signal; HEK293T, FACS bins.
In data set [2] the parent is B1. In words: surface expression score (Enrich2 score, wild type = 0); higher = more signal; HEK293T, FACS bins.

For five variants, cAMP reporter score and surface expression score results are on record in the GPR68 mutational scans of Howard et al. (2025).

On to MGNITADNSSMSCTIDHTIHQTLAPVVYVTVLVVGFPANCLSLYFGYLQIKARNELGVYLCNLTVADLFYICSLPFWLQYVLQHDNWSHGDLSCQVCGILLYENIYISVGFLCCISVDRYLAVAHPFRFHQFRTLKAAVGVSVVIWAKELLTSIYFLMHEEVIEDENQHRVCFEHYPIQAWQRAINYYRFLVGPLFPICLLLASYQGILRAVRRSHGTQKSRKDQIQRLVLSTVVIFLACFLPYHVLLLVRSVWEASCDFAKGVFNAYHFSLLLTSFNCVADPVLYCFVSETTHRDLARLRGACLAFLTCSRTGRAREAYPLGAPEASGKSGAQGEEPELLTKLHPAFQTPNSPGSGGFPTGRLA [F194P], for which the cAMP reporter score in data set [1] (pH 5.5) was -1.78; in data set [1] (pH 6), -1.81; in data set [1] (pH 6, modulator: ogerin), -1.3; in data set [1] (pH 6.5, modulator: ogerin), -1.37. Further, the surface expression score in data set [2] is -2.48.

For MGNITADNSSMSCTIDHTIHQTLAPVVYVTVLVVGFPANCLSLYFGYLQIKARNELGVYLCNLTVADLFYICSLPFWLQYVLQHDNWSHGDLSCQVCGILLYENIYISVGFLCCISVDRYLAVAHPFRFHQFRTLKAAVGVSVVIWAKELLTSIYFLMHEEVIEDENQHRVCFEHYPIQAWQRAINYYRFLVGMLFPICLLLASYQGILRAVRRSHGTQKSRKDQIQRLVLSTVVIFLACFLPYHVLLLVRSVWEASCDFAKGVFNAYHFSLLLTSFNCVADPVLYCFVSETTHRDLARLRGACLAFLTCSRTGRAREAYPLGAPEASGKSGAQGEEPELLTKLHPAFQTPNSPGSGGFPTGRLA [F194M], the cAMP reporter score in data set [1] (pH 5.5) is 0.29; in data set [1] (pH 6, modulator: ogerin) it was -1.31. Besides, in data set [2], the surface expression score was -2.11.

MGNITADNSSMSCTIDHTIHQTLAPVVYVTVLVVGFPANCLSLYFGYLQIKARNELGVYLCNLTVADLFYICSLPFWLQYVLQHDNWSHGDLSCQVCGILLYENIYISVGFLCCISVDRYLAVAHPFRFHQFRTLKAAVGVSVVIWAKELLTSIYFLMHEEVIEDENQHRVCFEHYPIQAWQRAINYYRFLVGLLFPICLLLASYQGILRAVRRSHGTQKSRKDQIQRLVLSTVVIFLACFLPYHVLLLVRSVWEASCDFAKGVFNAYHFSLLLTSFNCVADPVLYCFVSETTHRDLARLRGACLAFLTCSRTGRAREAYPLGAPEASGKSGAQGEEPELLTKLHPAFQTPNSPGSGGFPTGRLA [F194L]: the cAMP reporter score was -0.4 in data set [1] (pH 5.5); -0.826 in data set [1] (pH 6, modulator: ogerin); -0.549 in data set [1] (pH 6.5, modulator: ogerin). In addition, the surface expression score in data set [2] was -1.42.

Take MGNITADNSSMSCTIDHTIHQTLAPVVYVTVLVVGFPANCLSLYFGYLQIKARNELGVYLCNLTVADLFYICSLPFWLQYVLQHDNWSHGDLSCQVCGILLYENIYISVGFLCCISVDRYLAVAHPFRFHQFRTLKAAVGVSVVIWAKELLTSIYFLMHEEVIEDENQHRVCFEHYPIQAWQRAINYYRFLVGNLFPICLLLASYQGILRAVRRSHGTQKSRKDQIQRLVLSTVVIFLACFLPYHVLLLVRSVWEASCDFAKGVFNAYHFSLLLTSFNCVADPVLYCFVSETTHRDLARLRGACLAFLTCSRTGRAREAYPLGAPEASGKSGAQGEEPELLTKLHPAFQTPNSPGSGGFPTGRLA [F194N]: the cAMP reporter score in data set [1] (pH 5.5) is -0.623; in data set [1] (pH 6), -0.177; in data set [1] (pH 6.5, modulator: ogerin), -0.521. In addition, in data set [2], the surface expression score is -2.14.

As for MGNITADNSSMSCTIDHTIHQTLAPVVYVTVLVVGFPANCLSLYFGYLQIKARNELGVYLCNLTVADLFYICSLPFWLQYVLQHDNWSHGDLSCQVCGILLYENIYISVGFLCCISVDRYLAVAHPFRFHQFRTLKAAVGVSVVIWAKELLTSIYFLMHEEVIEDENQHRVCFEHYPIQAWQRAINYYRFLVGILFPICLLLASYQGILRAVRRSHGTQKSRKDQIQRLVLSTVVIFLACFLPYHVLLLVRSVWEASCDFAKGVFNAYHFSLLLTSFNCVADPVLYCFVSETTHRDLARLRGACLAFLTCSRTGRAREAYPLGAPEASGKSGAQGEEPELLTKLHPAFQTPNSPGSGGFPTGRLA [F194I], the cAMP reporter score in data set [1] (pH 5.5) is -0.589; in data set [1] (pH 6), -0.675; in data set [1] (pH 6, modulator: ogerin), -2.5; in data set [1] (pH 6.5, modulator: ogerin), -0.219. Moreover, in data set [2], the surface expression score was -1.62.
